# Data from PubChem BioAssay (Tox21).
# “And” between values parts separate entries of the source, which are not always exact repeats. Equal entries are not always repeated. Where a structure was tested more than once in an assay, its records may differ in their call. The source made the active and inactive calls. Unless noted, calls follow the shape of the dose curve; as a rule, active = well fitted curve in the direction sought with a large enough effect in the repeat runs; inconclusive = weak or mixed curves; inactive = no such curve, though single readings can be large; an effect the other way counts as inactive or inconclusive.
# What was measured:
# [1] = qHTS assay for identifying genotoxic compounds that show differential cytotoxicity against isogenic chicken DT40 cell lines with known DNA damage response pathways - Rad54/Ku70 mutant cell line (AID 743015); details: DT40 Rad54/Ku70 mutant viability, CellTiter-Glo, 40 h; activity change, negative = cytotoxicity: at 66.8 µM (top of the series); also: nearly all actives have a fitted effect of over 60% in size; also: potency is read from the fitted curve at half-maximal effect
# [2] = qHTS assay to identify small molecule antagonists of the androgen receptor (AR) signaling pathway using the MDA cell line - cell viability counter screen (AID 743041; also: potency is read from the fitted curve at half-maximal effect; nearly all actives have a fitted effect of over 45% in size); details: MDA-kb2 viability, CellTiter-Fluor, 16 h, cells co-treated with R1881 androgen agonist; viability change, negative = cytotoxic: at 70.3 µM (top of the series) unless noted
# In short: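 MDA-kb2 AR-luc human breast carcinoma cells (MMTV-luciferase, AR/GR responsive) were treated with compounds plus R1881 agonist for 16 h at 37 °C. Viability was read as CellTiter-Fluor fluorescence in the same wells as the reporter assay.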
# [3] = qHTS assay to identify small molecule antagonists of the thyroid receptor (TR) signaling pathway - cell viability counter screen (AID 743064); details: GH3.TRE-Luc viability, CellTiter-Fluor, 24 h; activity change, negative = cytotoxic: at 70.3 µM (top of the series) unless noted; also: nearly all actives have a fitted effect of over 50% in size; also: potency is read from the fitted curve at half-maximal effect
# In short: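 Same-well viability check: GH3.TRE-Luc cells stimulated with 1 nM T3 alongside test compound for 23.5 h, followed by CellTiter-Fluor fluorescence.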
# [4] = qHTS assay to identify small molecule antagonists of the thyroid receptor (TR) signaling pathway (AID 743065); also: potency is read from the fitted curve at half-maximal effect; nearly all actives have a fitted effect of over 55% in size
# In short: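 GH3.TRE-Luc rat pituitary cells carrying two TR response elements driving luciferase were plated for 4 h, given compound plus 1 nM T3 (final), and incubated 23.5 h at 37 C. ONE-Glo luminescence measured reporter inhibition; CellTiter-Fluor fluorescence tracked cytotoxicity.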
# [5] = qHTS assay to identify small molecule antagonists of the estrogen receptor alpha (ER-alpha) signaling pathway - cell viability counter screen (AID 743074; calls by dose curve; also: potency is read from the fitted curve at half-maximal effect; nearly all actives have a fitted effect of over 45% in size)
# [6] = molecular target: Estrogen receptor (Homo sapiens) (UniProt P03372); experiment: qHTS assay to identify small molecule agonists of the estrogen receptor alpha (ER-alpha) signaling pathway using the BG1 cell line (AID 743079); details: BG1Luc4E2 cells, ERE-luciferase agonist, 22 h; activation: at 70.3 µM (top of the series) unless noted; also: potency is read from the fitted curve at half-maximal effect; nearly all actives have a fitted effect of over 20% in size
# [7] = qHTS assay to identify small molecule antagonists of the estrogen receptor alpha (ER-alpha) signaling pathway using the BG1 cell line - cell viability counter screen (AID 743081);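 also: compound given together with 17beta-estradiol as the ER stimulus; nearly all actives have a fitted effect of over 45% in size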; also: potency is read from the fitted curve at half-maximal effect; as to activity change, negative = cytotoxicity: % is scaled to controls: 0 for no effect and ±100 for the full control effect
# Aromatase (Homo sapiens) = Aromatase (Homo sapiens) (UniProt P11511); experiment: qHTS assay to identify aromatase inhibitors (AID 743083); also: potency is read from the fitted curve at half-maximal effect; nearly all actives have a fitted effect of over 55% in size
# [8] = qHTS assay to identify aromatase inhibitors - cell viability counter screen (AID 743084); details: MCF-7 aro ERE viability, CellTiter-Fluor, 24 h; activity change, negative = cytotoxicity: at 70.3 µM (top of the series);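 also: cells stimulated with testosterone during compound exposure; nearly all actives have a fitted effect of over 55% in size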; also: potency is read from the fitted curve at half-maximal effect
# [9] = qHTS assay to identify small molecule antagonists of the androgen receptor (AR) signaling pathway - cell viability counter screen (AID 743033; also: nearly all actives have a fitted effect of over 45% in size; also: potency is read from the fitted curve at half-maximal effect; as to activity change, negative = cytotoxicity: % is scaled to controls: 0 for no effect and ±100 for the full control effect); details: AR-bla HEK293 viability, CellTiter-Glo luminescence, 16 h; activity change, negative = cytotoxicity: at 58.5 µM (top of the series)
# [10] = test system: thyroid hormone receptor (rat, GH3 cells); experiment: qHTS assay to identify small molecule agonists of the thyroid receptor (TR) signaling pathway (AID 743066; calls by dose curve; also: potency is read from the fitted curve at half-maximal effect; as to activation: % is scaled to controls: 0 for no effect and ±100 for the full control effect); details: GH3.TRE-Luc cells, TR agonist luciferase, 24 h; activation: at 83.9 µM (top of the series) unless noted
# [11] = molecular target: Estrogen receptor (Homo sapiens) (UniProt P03372); experiment: qHTS assay to identify small molecule antagonists of the estrogen receptor alpha (ER-alpha) signaling pathway (AID 743069; active = well fitted curve in the direction sought with a large enough effect in the signal ratio in the repeat runs, not every such curve was filed as active; inconclusive = weak or mixed curves, or effect the other way; inactive = no such curve, though single readings can be large or run the other way; the % refers to the signal ratio; also: potency is read from the fitted curve at half-maximal effect); details: HEK293 ER-alpha-UAS-bla, beta-lactamase ratio, antagonist mode; activity, negative = inhibition: at 69.4 µM (top of the series) unless noted
# In short: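 HEK293 cells stably carrying an ER-alpha-UAS-bla beta-lactamase reporter were pre-cultured overnight in 2% charcoal-stripped FBS medium. Test compounds in DMSO were added together with 17beta-estradiol for 18 hr at 37C. Read-out was fluorescence after 2 hr with LiveBLAzer B/G FRET substrate at room temperature.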
# [12] = qHTS assay to identify small molecule antagonists of the estrogen receptor alpha (ER-alpha) signaling pathway using the BG1 cell line (AID 743080; calls by dose curve;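 also: BG1 cells stimulated with 17beta-estradiol alongside compound; nearly all actives have a fitted effect of over 25% in size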; also: potency is read from the fitted curve at half-maximal effect); details: BG1Luc4E2 ERE-luciferase antagonist mode, luminescence; activity change, negative = inhibition: at 70.3 µM (top of the series) unless noted
# In short: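 Readout is ONE-Glo luminescence, taken 30 min at room temperature after reagent addition, preceded by a CellTiter-Fluor viability read; BG1-Luc-4E2 cells had received compound and 17beta-estradiol for 21.5 h at 37 C.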
# [13] = molecular target: Estrogen receptor (Homo sapiens) (UniProt P03372); experiment: qHTS assay to identify small molecule agonists of the estrogen receptor alpha (ER-alpha) signaling pathway (AID 743075; calls by dose curve; also: potency is read from the fitted curve at half-maximal effect)
# [14] = molecular target: Androgen receptor (Homo sapiens) (UniProt P10275); experiment: qHTS assay to identify small molecule antagonists of the androgen receptor (AR) signaling pathway (AID 743035; active = well fitted inhibition curve with a large enough effect in the signal ratio in the repeat runs, not every such curve was filed as active; inconclusive = weak or mixed curves, or effect the other way; inactive = no such curve, though single readings can be large or run the other way; the % refers to the signal ratio; also: % is scaled to controls: 0 for no effect and ±100 for the full control effect); details: HEK293 AR-UAS-bla, R1881-stimulated, beta-lactamase FRET, 16 h; activity change, negative = inhibition: at 58.5 µM (top of the series) unless noted
# In short: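 Cell line: GeneBLAzer AR-UAS-bla GripTite (HEK293). Stimulus: R1881 added after compound. Exposure: 16 h, 37C, 5% CO2. Readout: LiveBLAzer B/G FRET fluorescence after 2 h at room temperature.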
# [15] = molecular target: Androgen receptor (Homo sapiens) (UniProt P10275); experiment: qHTS assay to identify small molecule agonists of the androgen receptor (AR) signaling pathway (AID 743036; active = well fitted activation curve with a large enough effect in the signal ratio in the repeat runs, with a control signal flat, not every such curve was filed as active; inconclusive = weak or mixed curves, or effect the other way; inactive = no such curve, though single readings can be large or run the other way; the % refers to the signal ratio; also: potency is read from the fitted curve at half-maximal effect); details: HEK293 AR-UAS-bla GripTite, beta-lactamase FRET ratio, 16 h; activation: at 62.4 µM (top of the series) unless noted
# In short: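 Agonist activity was scored by beta-lactamase reporter fluorescence in stably transfected HEK293 cells exposed to compounds for 16 h at 37C and 5% CO2. Substrate loading took 2 h at room temperature.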
# Tags tell the direction and shape of the fitted curve or compound fluorescence and quenching.
# Sequence of UniProt P10275 (P10275 whole entry, looked up): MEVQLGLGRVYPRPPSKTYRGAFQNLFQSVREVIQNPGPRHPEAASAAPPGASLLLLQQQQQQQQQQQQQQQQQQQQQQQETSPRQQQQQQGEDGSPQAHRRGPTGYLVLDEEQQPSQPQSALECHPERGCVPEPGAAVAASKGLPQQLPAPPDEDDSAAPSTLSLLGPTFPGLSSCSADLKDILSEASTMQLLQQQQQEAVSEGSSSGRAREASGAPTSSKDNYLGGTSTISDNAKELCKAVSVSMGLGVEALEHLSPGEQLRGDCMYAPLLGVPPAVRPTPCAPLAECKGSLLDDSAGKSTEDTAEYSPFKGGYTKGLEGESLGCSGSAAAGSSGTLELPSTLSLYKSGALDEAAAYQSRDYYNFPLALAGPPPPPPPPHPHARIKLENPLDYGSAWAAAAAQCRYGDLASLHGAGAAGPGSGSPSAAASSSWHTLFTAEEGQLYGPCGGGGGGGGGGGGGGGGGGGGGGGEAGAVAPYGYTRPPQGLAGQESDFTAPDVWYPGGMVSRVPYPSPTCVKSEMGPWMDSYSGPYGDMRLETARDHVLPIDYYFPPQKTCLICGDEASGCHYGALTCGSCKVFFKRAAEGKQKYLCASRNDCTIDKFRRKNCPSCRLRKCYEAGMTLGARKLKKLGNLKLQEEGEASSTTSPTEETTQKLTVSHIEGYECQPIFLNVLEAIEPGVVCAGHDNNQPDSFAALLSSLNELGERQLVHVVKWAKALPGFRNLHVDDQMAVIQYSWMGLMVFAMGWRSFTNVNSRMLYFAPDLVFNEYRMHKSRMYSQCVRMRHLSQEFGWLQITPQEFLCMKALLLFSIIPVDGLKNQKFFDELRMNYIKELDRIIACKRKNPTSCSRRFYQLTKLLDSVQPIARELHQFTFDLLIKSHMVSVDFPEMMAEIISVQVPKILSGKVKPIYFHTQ
# Sequence of UniProt P11511 (P11511 whole entry, looked up): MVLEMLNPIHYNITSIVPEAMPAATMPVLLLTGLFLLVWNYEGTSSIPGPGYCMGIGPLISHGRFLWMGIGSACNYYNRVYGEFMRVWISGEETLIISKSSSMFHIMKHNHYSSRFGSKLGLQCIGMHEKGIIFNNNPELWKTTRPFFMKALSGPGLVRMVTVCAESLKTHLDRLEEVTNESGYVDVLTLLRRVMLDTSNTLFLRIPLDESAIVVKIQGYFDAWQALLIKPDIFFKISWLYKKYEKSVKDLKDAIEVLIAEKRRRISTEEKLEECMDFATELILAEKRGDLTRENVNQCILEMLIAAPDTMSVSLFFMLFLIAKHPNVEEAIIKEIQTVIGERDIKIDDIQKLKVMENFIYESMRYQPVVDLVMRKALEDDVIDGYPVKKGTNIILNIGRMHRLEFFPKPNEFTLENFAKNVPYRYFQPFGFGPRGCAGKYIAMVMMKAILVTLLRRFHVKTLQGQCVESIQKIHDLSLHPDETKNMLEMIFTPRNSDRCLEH
# Sequence of UniProt P03372 (P03372 whole entry, looked up): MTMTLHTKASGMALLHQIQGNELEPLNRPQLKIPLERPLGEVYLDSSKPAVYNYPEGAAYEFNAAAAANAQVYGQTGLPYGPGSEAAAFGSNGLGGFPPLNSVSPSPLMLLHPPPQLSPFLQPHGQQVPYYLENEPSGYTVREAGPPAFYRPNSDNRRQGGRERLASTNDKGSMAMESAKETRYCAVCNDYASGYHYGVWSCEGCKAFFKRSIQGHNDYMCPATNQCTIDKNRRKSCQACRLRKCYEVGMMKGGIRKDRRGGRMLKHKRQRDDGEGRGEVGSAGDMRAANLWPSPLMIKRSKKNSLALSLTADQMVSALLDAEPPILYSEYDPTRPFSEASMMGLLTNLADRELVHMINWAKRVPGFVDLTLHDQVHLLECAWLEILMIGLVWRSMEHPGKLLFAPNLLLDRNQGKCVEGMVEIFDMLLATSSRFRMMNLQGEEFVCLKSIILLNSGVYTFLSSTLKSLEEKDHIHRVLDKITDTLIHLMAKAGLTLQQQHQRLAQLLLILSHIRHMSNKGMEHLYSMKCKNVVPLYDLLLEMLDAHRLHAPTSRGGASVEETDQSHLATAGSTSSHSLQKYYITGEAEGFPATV
smiles,measurement,setting,value
CC(C)C(=O)Nc1ccc([N+](=O)[O-])c(C(F)(F)F)c1,Potency,[1],active: 18.8 µM and active: 22.3 µM and active: 19.3 µM
same,Potency,[2],"inconclusive: 70.5 µM [cytotoxic] and inconclusive: 48.6 µM [cytotoxic, partial curve]"
same,Potency,[3],"inconclusive: 79.2 µM [cytotoxic, single point]"
same,Potency,[4],"inconclusive: 29.8 µM [inhibitor] and inconclusive: 68.6 µM [inhibitor, single point]"
same,Potency,[5],"inconclusive: 44.9 µM [cytotoxic, partial curve]"
same,Potency,[6],"inconclusive: 26.6 µM [inhibitor, partial curve] and inconclusive: 28.1 µM [inhibitor, partial curve] and inconclusive: 54.5 µM [inhibitor, partial curve]"
same,Potency,[7],"inconclusive: 56 µM [cytotoxic, single point]"
same,Potency,Aromatase (Homo sapiens),inconclusive: 61.1 µM [inhibitor]
same,Potency,[8],"inconclusive: 70.5 µM [cytotoxic, single point]"
O=c1c(-c2ccccc2)c1-c1ccccc1,Potency,[1],active: 4.73 µM
same,Potency,[9],active: 21.3 µM
same,Potency,[2],"inconclusive: 24.8 µM [cytotoxic, partial curve]"
same,Potency,[4],active: 5.31 µM
same,activation,[10],inconclusive: -9.63% [phenotype inactive]
same,Potency,[11],active: 26.8 µM [inconclusive]
same,Potency,[12],inconclusive: 33.5 µM [single point]
same,Potency,[8],"inconclusive: 29.8 µM [cytotoxic, single point]"
C#C[C@]1(OC(C)=O)CC[C@H]2[C@@H]3CCC4=C[C@@H](OC(C)=O)CC[C@@H]4[C@H]3CC[C@@]21C,Potency,[1],active: 10.6 µM and active: 11.9 µM
same,Potency,[9],"inconclusive: 3 nM [cytotoxic, full curve, poor fit] and inactive"
same,Potency,[11],"inconclusive: 26.8 µM and inconclusive: 16.9 µM [fluorescent, partial curve, poor fit]"
same,Potency,[5],"inconclusive: 6.74 µM [cytotoxic, full curve, poor fit]"
same,Potency,[13],active: 0.0085 µM [inconclusive]
same,Potency,[12],active: 33.5 µM
same,Potency,[7],"inconclusive: 29.8 µM [cytotoxic, partial curve, poor fit] and inactive"
Fc1ccc(C(c2ccc(F)cc2)N2CCN(C/C=C/c3ccccc3)CC2)cc1,Potency,[1],active: 11.9 µM
same,Potency,[9],inconclusive: 26.8 µM [cytotoxic]
same,Potency,[11],inconclusive: 26.8 µM
COC(=O)Nc1nc2ccc(C(=O)c3cccs3)cc2[nH]1,Potency,[1],active: 0.237 µM
same,Potency,[9],"inconclusive: 0.213 µM [cytotoxic, full curve]"
same,Potency,[3],active: 0.266 µM
same,Potency,[5],"inconclusive: 0.848 µM [rising, full curve, poor fit]"
Nc1ccc(NC(=O)c2ccc(N)cc2)cc1,Potency,[1],"inconclusive: 68.7 µM [cytotoxic, single point]"
same,"activity change, negative = inhibition",[14],inconclusive: 0.6%
same,Potency,[15],inactive
same,Potency,Aromatase (Homo sapiens),"inconclusive: 68.7 µM [inhibitor, single point]"
same,Potency,[8],active: 54.5 µM
COc1ccc(C)cc1,Potency,[1],inactive
Cc1ccc(C(C)(C)C)cc1,Potency,[1],inactive
same,Potency,[3],"inconclusive: 69 µM [rising, single point]"
same,Potency,[10],"inconclusive: 69 µM [activator, partial curve, poor fit]"
same,Potency,[11],inconclusive: 24.7 µM [activator]
same,Potency,[13],inactive
Cc1cc(-c2ccc(N=Nc3cc(S(=O)(=O)O)c4ccccc4c3N)c(C)c2)ccc1N=Nc1cc(S(=O)(=O)O)c2ccccc2c1N,Potency,[1],active: 0.346 µM
same,Potency,[9],"inconclusive: 8.75 µM [cytotoxic, full curve]"
same,Potency,[2],"inconclusive: 12.3 µM [cytotoxic, partial curve, poor fit]"
same,Potency,[11],"inconclusive: 7.8 µM [rising, full curve]"
same,Potency,[5],"inconclusive: 0.982 µM [cytotoxic, full curve]"
same,Potency,[13],inconclusive: 55.2 µM
same,Potency,[6],"inconclusive: 13.8 µM [inhibitor, full curve]"
same,Potency,[12],"inconclusive: 9.74 µM [falling, full curve]"
same,Potency,[7],active: 30.8 µM
same,Potency,Aromatase (Homo sapiens),"inconclusive: 48.8 µM [inhibitor, partial curve]"
O=C(O)Cc1ccc(Cl)cc1Cl,Potency,[1],"inconclusive: 61.1 µM [cytotoxic, partial curve]"
same,Potency,[14],inactive
same,Potency,[15],"inconclusive: 54.9 µM [rising, partial curve, poor fit]"
Cc1ccc(N(CCO)CCO)cc1,Potency,[1],inactive
same,Potency,[3],inactive
CCN(CCC#N)c1ccc(N=Nc2c(Cl)cc([N+](=O)[O-])cc2Cl)cc1,Potency,[9],"inconclusive: 43.6 µM [cytotoxic, partial curve]"
same,Potency,[2],"inconclusive: 13.7 µM [cytotoxic, full curve]"
same,Potency,[3],active: 24.3 µM
same,Potency,[10],inactive
same,Potency,[12],inactive
same,Potency,[7],active: 27.3 µM
same,Potency,[8],active: 24.3 µM
CCOCCOCCOC(C)=O,Potency,[9],inactive
CN(C)CC/C=C1\c2ccccc2COc2ccccc21,Potency,[9],"inconclusive: 10.7 µM [rising, single point]"
same,"activity change, negative = inhibition",[14],inconclusive: 1.71%
same,Potency,[3],active: 13.3 µM
same,activation,[10],inconclusive: -7.76% [phenotype inactive]
same,Potency,[8],inactive
